Our source for the TGI and GI50 values is PubChem BioAssay (NCI).

“And” between values parts separate entries of the source, which are not always exact repeats. Equal entries are not always repeated.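 Method: 48-hour compound exposure of cells in 96-well plates, five concentrations, linear interpolation of endpoints. GI50 marks 50% less growth. TGI marks complete inhibition of growth.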

This assay deals with NCI-H322M lung. As to the kind of experiment: DTP human tumour cell line panel, 48 h.
As usually defined, the TGI is the concentration at which net growth stops. Read a low TGI as more potent growth arrest. Regarding `Cc1c(-c2ccccc2)oc(=O)c2ccccc12`, the TGI was 51.2 µM.

What is called GI50 is the concentration that inhibits growth by half. For `COc1cc(/C=C/C(=O)/C=C/c2ccc(-n3ccnc3)cc2)ccc1O`, the GI50 is 10.6 µM and the TGI was 30.8 µM.

For `O=C(NCCNC1=CC(=O)c2nc3ccccc3c3ccnc1c23)c1cnccn1`, the GI50 was 27.9 µM and the concentration for total growth inhibition (TGI) is more than 100 µM.

As for `Nc1ncnc2c1ncn2CCCNO`, the total growth inhibition concentration (TGI) is more than 100 µM.

In the case of `Cc1nc(Nc2ccc(Cl)c(Cl)c2)sc1C(/C=C/c1ccc2c(c1)OCO2)=N/Nc1ccc([N+](=O)[O-])cc1[N+](=O)[O-]`, the TGI is more than 100 µM.

With `CCOc1ccccc1NC(=O)C1=C(C)NC(C)=C(C(=O)Nc2ccccc2OCC)C1c1ccc2c(c1)OCO2`, the concentration for total growth inhibition (TGI) is more than 100 µM.

With `CC1(O)CC2C(CC1SCc1ccccc1)C2(C)C` (stereo unspecified), the GI50 is 40.8 µM and 17.3 µM; the TGI was > 100 µM and 31.5 µM.

For the compound `CC(C)(C)[C@H]1NC(=O)CN1C(=O)OCc1ccccc1`, the TGI is more than 100 µM.

`CC1(C)O[C@@H](CCl)C[C@@H](C#N)O1` displayed a TGI of more than 100 µM.

Take `COc1cc2c(cc1OCCN1CCN(CCOc3cc4c(cc3OC)C(=O)N3CCC[C@H]3C=N4)CC1)N=C[C@@H]1CCCN1C2=O`: the total growth inhibition concentration (TGI) is more than 100 µM.

On to `Nc1c([N+](=O)[O-])ncn1C1OC(CO)C(O)C1O` (stereo unspecified), for which the GI50 was more than 100 µM and the TGI was more than 100 µM.

In the case of `O=[N+]([O-])/C(=C/C=C/c1ccccc1)c1ccccc1`, the GI50 is 3.13 µM and the TGI amounted to 10.7 µM.

`COC(=O)c1c2c(cc3c1CC1(Cc4cc5c(cc4C1)CCCC5)C3)CCCC2` came in with a total growth inhibition concentration (TGI) of more than 100 µM.

Take `CC1(C)N=C(N)N=C(N)N1c1ccc(CCCCCCc2ccc(S(=O)(=O)F)cc2)cc1`: the total growth inhibition concentration (TGI) amounted to 17.2 µM.

In turn, `C=C(CCC(=O)N(CCc1c[nH]c2ccccc12)C(=O)c1ccccc1CSCC)C(=O)OC` yielded a TGI of more than 100 µM.

Consider `Cc1cc(C)n(C(=CC(=O)C(Cl)Cl)n2nc(C)cc2C)n1`, for which the TGI was determined as 28 µM.

`Nc1ccc2c3c1cccc3c(=O)n1c3ccc(Cc4ccc5c(c4)nc4c6ccc(N)c7cccc(c(=O)n54)c76)cc3nc21`: the total growth inhibition concentration (TGI) is more than 100 µM.

On to `CCCCCCCCCCCCCCCC[N+](C)(C)CCl`, for which the concentration for total growth inhibition (TGI) was found to be 30.6 µM.

Compound `O=C(Cn1ccnc1[N+](=O)[O-])NCc1ccc(F)cc1` showed a TGI of more than 100 µM.

The compound `Cc1cc(C)nc(NS(=O)(=O)c2ccc(NC(=O)c3ccc4nc5ccccc5c(Nc5ccc(S(=O)(=O)N=C(N)N)cc5)c4c3)cc2)n1` displayed a TGI of more than 100 µM.

`COc1cc2ccc(CC(=O)O)cc2cc1OC` returned a TGI of more than 100 µM.

Consider `C#CCN(CCCOc1ccc(Cl)cc1Cl)CCCSC(=O)CCCCCN1/C(=C\C=C2/CCCC(/C=C/C3=[N+](CCCCCC(=O)[O-])c4ccccc4C3(C)C)=C2Cl)C(C)(C)c2ccccc21`, for which the GI50 is 3.01 µM and the TGI amounted to 10.9 µM.

Regarding `COc1ccc(C2=NOC3=c4ccccc4=CSC3=C2c2ccccc2)cc1`, the GI50 was more than 100 µM and the TGI was more than 100 µM.

Compound `COc1ccc(N=C2C(=O)Nc3ccc(Br)cc32)cc1` gave a concentration for total growth inhibition (TGI) of 86.1 µM.

Turning to `CCCCCCCCCCCCCCCCOC[C@H](COC(c1ccccc1)(c1ccccc1)c1ccccc1)O[P+](=S)OC` (stereo partly specified), the TGI was more than 100 µM.

On to `O=C(N[C@H]1CC2(C=C(I)C(=O)C(I)=C2)OC1=O)OCc1ccccc1`, for which the TGI is more than 100 µM.

Consider `COc1cc(/C=C2\C(=O)N(c3ccc(Cl)cc3)C(c3ccccc3)S2(=O)=O)cc(OC)c1OC` (stereo unspecified), for which the TGI was more than 100 µM.

`COc1cc(OC)c(OC)cc1/C=C\c1ccnc2ccccc12` registered a TGI of more than 100 µM.

`Cc1ccc(-n2cc(/C(N)=N/O)c3ccccc3c2=O)cc1`: the TGI is more than 100 µM.

As for `COc1ccc(-c2nc3sccn3c2/C=C/C(=O)c2cc(OC)c(OC)c(OC)c2)cc1`, the GI50 is 4.38 µM and the TGI is more than 100 µM.

The compound `CN(CC(=O)O)c1ncc2c(n1)-c1ccccc1CC2` returned a TGI of more than 100 µM.

With `Nc1ncnc2c1ncn2C1C(O)C=C(CO)C1O` (stereo unspecified), the TGI was more than 625 µM.

As for `CC(=O)OCCc1cc2ccccc2oc1=O`, the TGI was more than 100 µM.

Turning to `c1ccc2c(c1)ccc1cc3cc(NCCCCNc4ccc5nc6c(ccc7ccccc76)cc5c4)ccc3nc12`, the TGI was 3.2 µM.

As to `O=C(Nc1c(Cl)cc([N+](=O)[O-])cc1Cl)C(=O)C(C(=O)c1ccncc1)C1OC(=O)c2ccccc21` (stereo unspecified), the total growth inhibition concentration (TGI) was more than 100 µM.

With `CC[C@]1(O)C[C@@H]2CN(CCc3c([nH]c4ccccc34)[C@@](C(=O)OC)(c3cc4c(cc3OC)N(C)[C@H]3[C@@](O)(C(=O)OC)[C@H](OC(=O)CCCBr)[C@]5(CC)C=CCN6CC[C@]43[C@@H]65)C2)C1`, the concentration for 50% growth inhibition (GI50) was less than 0.0221 µM and the total growth inhibition concentration (TGI) was more than 86.8 µM.

Take `CCOC(=O)C(NC(=O)c1ccccc1)(Nc1ccc(S(=O)(=O)Nc2cc(C)on2)cc1)C(F)(F)F` (stereo unspecified): the TGI was more than 100 µM.

Take `Fc1nc(Sc2ncnc3nc[nH]c23)nc(-c2c3ccccc3c3sc4ccccc4n23)n1`: the total growth inhibition concentration (TGI) was more than 100 µM.

Compound `CN(C)CCCNC(=O)N/N=C/c1ccccn1` displayed a total growth inhibition concentration (TGI) of more than 10 µM.

In turn, `CC(C)C(Nc1c2ccccc2[n+](C)c2ccccc12)C(=O)O` (stereo unspecified) had a TGI of more than 100 µM.

Compound `CN1CCN(Cc2ccc(C(=S)Nc3ccccc3)s2)CC1` yielded a TGI of more than 100 µM.

Consider `CN1CCC(C(=O)Nc2n[nH]c3nnc(-c4ccccc4)cc23)CC1`, for which the GI50 is more than 25 µM and the TGI was more than 25 µM.

For `CNc1ccc(CSc2ccc(C)cc2)cc1`, the GI50 was 26.9 µM and the TGI is more than 100 µM.

With `CCOC(=O)CCC(C(=O)OCC)n1nnc2cc(Nc3c(C)[n+]([O-])c4cc(Cl)ccc4[n+]3[O-])ccc21` (stereo unspecified), the TGI was more than 100 µM.

As to `CCOC(=O)/C=C(/OCC)[C@@H]1C(C(=O)c2ccc(Cl)cc2)[C@@H]1/C(=C\C(=O)OCC)OCC` (stereo partly specified), the TGI was more than 100 µM.

Regarding `O=c1ccc(=O)c2c1c1[nH]c3ccccc3c1c1c(=O)c3ccccc3c(=O)c21`, the concentration for total growth inhibition (TGI) was more than 10 µM.

`CC1CC[C@@]2(OC1)OC1C[C@H]3[C@@H]4CC=C5C[C@@H](OC6OC(CO)C(OC7OC(CO)C(O)C(O)C7O)C(O)C6OC6OC(C)C(O)C(O)C6O)CC[C@]5(C)[C@H]4CC[C@]3(C)C1[C@@H]2C` (stereo partly specified): the TGI was 2.67 µM.

Regarding `O=C(c1ccccc1)C1C(c2ccccc2[N+](=O)[O-])N1C1CCCCC1` (stereo unspecified), the TGI is 28.9 µM.

For the compound `CC(C)OC(=O)c1cc(NC(=S)OC(C)C)ccc1Cl`, the TGI is more than 58.2 µM.

Take `CCCCCCCC(=O)OC[n+]1cccc(-c2c(COC(=O)NC(C)C)c(COC(=O)NC(C)C)c3n2CCC3)c1`: the TGI was more than 100 µM.

As to `Cn1cc(C2=C(c3cccc([N+](=O)[O-])c3)C(=O)NC2=O)c2ccccc21`, the GI50 was 11.5 µM and the concentration for total growth inhibition (TGI) is more than 25 µM.

As for `Cn1c(COC(=O)NC2CCCCC2)c(COC(=O)NC2CCCCC2)c2ccc3ccccc3c21`, the TGI is more than 100 µM.

On to `Cc1cn([C@H]2CN(O)C[C@@H](CO)O2)c(=O)[nH]c1=O`, for which the TGI is more than 100 µM.

Regarding `CC(C)(C)OC(=O)CC(S(=O)(=O)c1ccccc1)S(=O)(=O)c1ccccc1`, the GI50 was more than 100 µM and the total growth inhibition concentration (TGI) is more than 100 µM.

`O=[N+]([O-])/C=C/c1cn(CCCCCCCCn2cc(/C=C/[N+](=O)[O-])c3ccccc32)c2ccccc12` had a TGI of more than 10 µM.

In turn, `COc1cc2ccc(C(C)NCC#N)cc2cc1OC` (stereo unspecified) yielded a TGI of more than 100 µM.

As to `Clc1cc(Cl)cc(Nc2ccc3c(OCCCN4CCOCC4)cccc3n2)c1`, the GI50 was 2.51 µM and the TGI turned out to be 7.51 µM.

The compound `CCOc1ccc(N=Nc2c(-c3ccccc3)nn(C(=O)CC(=O)Nc3ccccc3Cl)c2-c2ccccc2)cc1` came in with a TGI of more than 100 µM.

`N=C(N)c1ccc(N=Nc2c(O)c(C(=O)Nc3ccccc3)cc3ccccc23)cc1` displayed a TGI of more than 100 µM.

`NCC1OC(OC2C(N)CC(N)C(O)C2OC2OC(CO)C(O)C2O)C(N)C(O)C1O` (stereo unspecified): the TGI was more than 100 µM.

`C=C1CCC2C(C)(CO)C(O)CCC2(C)C1C/C=C1\C(=O)OCC1O` (stereo unspecified) had a total growth inhibition concentration (TGI) of more than 100 µM.

On to `NCC[PH+](c1ccccc1)c1ccccc1.NCC[PH+](c1ccccc1)c1ccccc1.[Cl-].[Pt+4]`, for which the GI50 is more than 100 µM and the TGI is more than 100 µM.

As for `O=C(O)C1C2OC(C(Br)C2Br)C1C(=O)O` (stereo unspecified), the TGI is more than 100 µM.

In turn, `COc1cc2c(c(OC)c1OC)-c1ccc(SC)c(=O)cc1C(CC(=O)Oc1ccccc1F)C2` (stereo unspecified) gave a TGI of more than 7.5 µM.

On to `CN(Cc1cnc2nc(N)nc(N)c2n1)c1c(Cl)cc(C(=O)NC(CCC(=O)O)C(=O)O)cc1Br` (stereo unspecified), for which the GI50 was less than 0.01 µM and the TGI was more than 100 µM.

Take `CSC1=C(C)C(/C=N/Nc2ccc([N+](=O)[O-])cc2)=C(C)N(c2ccccc2)S1(=O)=O`: the concentration for total growth inhibition (TGI) is more than 100 µM.

Compound `Cc1cc(C)n(C(C)(C(=O)Cc2ccccc2)n2nc(C)cc2C)n1` displayed a TGI of more than 100 µM.

Turning to `c1ccc(CN2CCC(CNc3ncnc4ccccc34)C2)cc1` (stereo unspecified), the TGI was more than 100 µM.

Regarding `O=C(Cc1csc2nc(-c3ccc(Br)cc3)cn12)N/N=C/c1ccccc1O`, the GI50 is 2.14 µM and the concentration for total growth inhibition (TGI) was determined as 10.7 µM.

Compound `CC1OC23CCCCC2C(C#N)(C#N)C1(C#N)C(=N)O3` (stereo unspecified) came in with a concentration for total growth inhibition (TGI) of more than 100 µM.

`C/C(=C\C(=O)O)C(=O)N(C)c1ccccc1I` gave a total growth inhibition concentration (TGI) of more than 100 µM.

For the compound `COC(=O)c1sc(=S)c2sc(C(=O)OC)c(C(=O)OC)c2c1C(=O)OC`, the GI50 is 27.8 µM and the TGI was more than 100 µM.

`CN(C)CC(=O)N1CCc2c([nH]c3ccccc23)C1c1cccnc1` (stereo unspecified) gave a total growth inhibition concentration (TGI) of more than 100 µM.

Compound `Cc1c(C)c2c(c(N)c1C#N)C(=O)N(NC(=S)Nc1ccccc1)C2=O` yielded a total growth inhibition concentration (TGI) of more than 100 µM.

Consider `Clc1ccc(-c2nn3c(COc4ccc(OCc5nnc6sc(-c7ccc(Cl)cc7)nn56)c(Cl)c4)nnc3s2)cc1`, for which the TGI was more than 100 µM.

`CC1=NN(C(=O)CC(=O)Nc2cccc(C)c2)C(=O)C1N=Nc1ccc(C(=O)O)cc1` (stereo unspecified) gave a concentration for total growth inhibition (TGI) of more than 100 µM.

`O=C(Nc1nnc(-c2ccccc2)o1)C(SC(=S)N1CCCC1)c1ccccc1` (stereo unspecified) returned a concentration for total growth inhibition (TGI) of 85.6 µM.

Consider `CCOC(=O)c1c(-c2ccc(Cl)cc2)c(C#N)c(=S)n(C2OC(COC(C)=O)C(OC(C)=O)C(OC(C)=O)C2OC(C)=O)c1C` (stereo unspecified), for which the TGI was more than 100 µM.

Consider `COc1ccc(Nc2nc(N)c(C(=O)c3ccco3)s2)cc1`, for which the concentration for total growth inhibition (TGI) was more than 100 µM.

Turning to `C=C(c1ccc(C(=O)NCCCn2ccnc2)cc1)c1cc2c(cc1C)C(C)(C)CCC2(C)C`, the GI50 is 8.47 µM and the TGI is more than 66 µM.

With `CCCCCCC1CCCCN1C(c1ccccc1)C(O)c1ccccc1` (stereo unspecified), the GI50 was 14.2 µM and the concentration for total growth inhibition (TGI) came out at 29.2 µM.
